In paper PMC12136788:
Some of the results follow.

B1: 2656068_2656188_392_CDS_ENSG00000101596_ENST00000320876|human|control|control (ssRNA)
RNA: GGGAGUUCUACAGUCCGACGAUCGGACUCCUUUUCGCGCCGAUCAAACAAGUACACCGUCCUGUGGCCGACGCCUCCGCCAUCCUCCUCAGUCCCCACAGAGGCCCCACCAGGCCCGCCGCCGUCCGCCGCUGCCAUAUUGGGCAACAGAGGAUUGAGCAUCA
B2: chr2:179515052:179515053:+_ENSMUSG00000000305_ENSMUST00000000314|mus_hu|mus_mus_mus_hu_False|58_78 (ssRNA)
RNA: GGGAGUUCUACAGUCCGACGAUCGCUGUCCCAUGCAGUCACCGUGAACGCCACCUGCUCUGAGGGGACCUGCAGCUCCCUAGUGGCGAAGACUGUCCCAUCUGCCCCAACUUUGAAGUCCAUGCUGUUGGUCUCAUAUUGUGUCAACAGAGGAUUGAGCAUCA
B3: chr13:76104392:76104393:-_ENSG00000188243_ENST00000355801|hu_mus|motif|central (ssRNA)
RNA: GGGAGUUCUACAGUCCGACGAUCAUACUUGAGAGAUCUGCAGCUGUCAGAGCUCACAGCCAUGCCCAGUUUCCACUGAAAAUCGGUAAGCUGGCCCGUGACCUCCGACUUGGCAUCCAGCACGGGCUCCCUGAACCCAGACUCCAACAGAGGAUUGAGCAUCA
B4: chr14:66974463:66974464:+_ENSMUSG00000022044_ENSMUST00000074523|mus_hu|mus_mus_mus_hu_False|1_1 (ssRNA)
RNA: GGGAGUUCUACAGUCCGACGAUCUUGUAGGACGACUUAUUCAGGGGAUCGGCCAGGAAGCAGGAGCAGAACAAGGACACCAGCGGGAGCUCCUUCAUCUUCUCUUUGUAGGCAGCAAGGGUCAUGUUUCUGGGAUCCUGGUGGCAACAGAGGAUUGAGCAUCA
B5: 55349184_55349304_3716_3pUTR_ENSMUSG00000021488_ENSMUST00000099490|mouse|control|control (ssRNA)
RNA: GGGAGUUCUACAGUCCGACGAUCGGAUCUGCUGCUGAGUCCUCAGGUUUACUUGUAGGAGGAGCUCUUUGUUCUAAGUAGUCUUCCCGGGCCUUCUGCACAGCGUCAGCAGGAAGUAAGACUCCAAAAGCACCCUCCGAGUUUCAACAGAGGAUUGAGCAUCA
B6: chr5:38529146:38529147:-_ENSMUSG00000029126_ENSMUST00000031009|mus_hu|FALSE|FALSE (ssRNA)
RNA: GGGAGUUCUACAGUCCGACGAUCAAAAAUUAAAGUAGCUCAAGCUUACCAGAAAUUACAUUUCCACUUUUCCCACCCAGCUCAUUUCUUUAAAAACUAAUGGGGCUAUUGGUGCAAAUUUAUUCAUAAUAGAAGUGAACCAGACAACAGAGGAUUGAGCAUCA
B7: 50586550_50586670_1272_3pUTR_ENSG00000204977_ENST00000378182|human|control|control (ssRNA)
RNA: GGGAGUUCUACAGUCCGACGAUCAUUCUUCUUUUGAUCCAGUGUGUGUUGUAACUUCUCAAAAAAUUCCUUCACUUUAUCUGAAUCUUUAGUCAGUAACUGUAGGGAUUUCCUCUUACUAGUUUCCAAGGUAUCCAAGCGAGACAACAGAGGAUUGAGCAUCA
B8: chr1:58468927:58468928:-_ENSMUSG00000026034_ENSMUST00000148330|mus_mus|mus_mus_mus_hu_False|88_88 (ssRNA)
RNA: GGGAGUUCUACAGUCCGACGAUCAAUUACUGAAAAAGAUGUUCAUUUAUUUGGUUUUGUACUUAAUGAACCAAAUUACCCAAACAAAAUAAACAUGGCAAUAUAAAAAUGUUAAGAAUUUACAAAGCUGUACAAAAUAACUUACAACAGAGGAUUGAGCAUCA
B9: chr16:46990514:46990515:-_ENSG00000069345_ENST00000317089|hu_hu|motif|central (ssRNA)
RNA: GGGAGUUCUACAGUCCGACGAUCAACCCAUUGUGUGCAAAGCCCAUUUUUUUCCAUGCAUCUAAAUGAUAGAUACAGGCGGUGAAAUUCUUUAUUCUAUUUGUAGCAGCUUAUGCAGGUGCAGCCAAACACAAAGCUUCAGGACAACAGAGGAUUGAGCAUCA
B10: chr4:107252891:107252892:+_ENSG00000164022_ENST00000394701|hu_hu|FALSE|FALSE (ssRNA)
RNA: GGGAGUUCUACAGUCCGACGAUCAGGGUGUUUUCUAGCAGUUAUGAUGCAACCAAUUCGAAGAUCCAGACGGGAAACAUCUAUUGGCUUAGAGUCGGCACUUCCAGCUAUUGAUUGCUGUUUUUUCUCCUUCUUCUCUCCUUUCAACAGAGGAUUGAGCAUCA
B11: chr1:60041781:60041782:+_ENSMUSG00000041040_ENSMUST00000036540|mus_hu|mus_mus_mus_hu_False|48_48 (ssRNA)
RNA: GGGAGUUCUACAGUCCGACGAUCAAGUUUACAAUAGUAAAGUAAAUGCAGUAGUGGCAAAUUUUCUUUUAUUUUCCUUCACAAAAGAAAACCUCAGUAACCCAGUCCUAGUCUUGGACAUAGUGAAAGCUAUAAAUUCUGACUCAACAGAGGAUUGAGCAUCA
B12: 44630555_44630842_6477_CDS_ENSMUSG00000002028_ENSMUST00000002095|mouse|control|control (ssRNA)
RNA: GGGAGUUCUACAGUCCGACGAUCCGGGUCACCGACUGUGACGAUUUCGUGAGUGGUUGGGGUAGGACUUCCUGCAGAAGGCAAUGGGCGGCAGCCAGGGGACCUCUGUGUAGGCGAGUAGCUGGGUGUUCGAAUCCUAGGGACCAACAGAGGAUUGAGCAUCA
B13: chr1:39494447:39494448:+_ENSG00000168653_ENST00000372967|hu_mus|hu_hu_hu_mus_False|38_78 (ssRNA)
RNA: GGGAGUUCUACAGUCCGACGAUCGCACCGAGCGGCGUUCUUAUAGGGCUGUUCUGCACUCUGGAUUAUAAAGUGCCGGUCCAGGCUGAUGCCCAGCCUUUUCUGGAUGUCAAGGAAAGGCAUGGCUCUGCAGUGCCCUUGUCACAACAGAGGAUUGAGCAUCA
B14: chr12:16048344:16048345:+_ENSG00000023734_ENST00000419869|hu_hu|hu_hu_hu_mus_True|38_38 (ssRNA)
RNA: GGGAGUUCUACAGUCCGACGAUCAGAUCGUCCAUAAGUAAUAACCAAAAUCUCUCCUUCAGGAAUAUACUCCAUGCUGCUAACAGACAUAUUAAAAUUUAGAGAUUUCACUUCUGUCAUUGUGGCAUGAUCCCAGAGCCGAACCAACAGAGGAUUGAGCAUCA

Biological target: T1, UNK ZnF1-3 (human, UniProt Q9C0B0 31-174)
T1 sequence: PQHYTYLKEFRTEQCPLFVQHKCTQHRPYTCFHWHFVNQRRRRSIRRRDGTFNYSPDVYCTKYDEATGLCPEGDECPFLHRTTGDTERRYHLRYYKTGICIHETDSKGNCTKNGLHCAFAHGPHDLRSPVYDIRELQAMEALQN
Assay: nsRBNS (natural sequence RNA bind-n-seq); RBNS binding buffer (assumed for nsRBNS): 25 mM Tris pH 7.5, 150 mM KCl, 3 mM MgCl2, 0.01% Triton X-100, 500 ug/ml BSA, 20 U/ml SUPERase-In, 4 C; UNK is unkempt and MSI1 is Musashi-1; names of the RNAs are library labels; protein concentration not given here; high values mean tight binding

| Binder | binding signal |
| --- | --- |
| B1 | 1.28 enrichment R |
| B2 | 0.759 enrichment R |
| B3 | 0.268 enrichment R |
| B4 | 1.77 enrichment R |
| B5 | 0.755 enrichment R |
| B6 | 1.36 enrichment R |
| B7 | 0.599 enrichment R |
| B8 | 1.36 enrichment R |
| B9 | 1.28 enrichment R |
| B10 | 0.59 enrichment R |
| B11 | 0.78 enrichment R |
| B12 | 1.52 enrichment R |
| B13 | 0.736 enrichment R |
| B14 | 1.4 enrichment R |
